# Laboratory results from the supplement of paper PMC8728848.
# Some of the results follow.
# Legend:
# Experiment in all cases: glycan array binding signal (z-score within array); higher = stronger binding
# Details in all cases: glycan notation: IUPAC condensed, linker removed
# [1] = target: Fuc(a1-2)Gal(b1-4)GlcNAc(b1-2)[Fuc(a1-2)Gal(b1-4)GlcNAc(b1-4)]Man(a1-3)[Fuc(a1-2)Gal(b1-4)GlcNAc(b1-2)Man(a1-6)]Man(b1-4)GlcNAc(b1-4)GlcNAc
# Procedure, shortened: (§1)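 The binding signal is a Z-score computed within each array. Data were drawn from 3228 arrays in the Consortium for Functional Glycomics database, restricted to those with a known protein sequence. Scores were averaged over arrays of the same protein sequence at different concentrations or buffers, and over linkers, and negative values can be taken as non-binding.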
# [2] = target: Fuc(a1-2)Gal(b1-4)GlcNAc(b1-3)Gal(b1-4)GlcNAc
# Procedure, shortened: as §1
# [3] = target: Fuc(a1-2)Gal(b1-4)GlcNAc(b1-3)Gal(b1-4)GlcNAc(b1-2)Man(a1-3)[Fuc(a1-2)Gal(b1-4)GlcNAc(b1-3)Gal(b1-4)GlcNAc(b1-2)Man(a1-6)]Man(b1-4)GlcNAc(b1-4)GlcNAc
# Procedure, shortened: as §1
# [4] = target: Fuc(a1-2)Gal(b1-4)GlcNAc(b1-3)Gal(b1-4)GlcNAc(b1-3)Gal(b1-4)GlcNAc
# Procedure, shortened: as §1
# [5] = target: Fuc(a1-2)Gal(b1-4)GlcNAc(b1-3)GalNAc
# Procedure, shortened: as §1
# [6] = target: Fuc(a1-2)Gal(b1-4)GlcNAc(b1-3)[Fuc(a1-2)Gal(b1-4)GlcNAc(b1-6)]GalNAc
# Procedure, shortened: as §1
# [7] = target: Fuc(a1-2)Gal(b1-4)GlcNAc(b1-3)[Fuc(a1-3)[Gal(b1-4)]GlcNAc(b1-6)]Gal(b1-4)Glc
# Procedure, shortened: as §1
# [8] = target: Fuc(a1-2)Gal(b1-4)GlcNAc(b1-6)GalNAc
# Procedure, shortened: as §1
# [9] = target: Fuc(a1-2)Gal(b1-4)GlcNAc6S
# Procedure, shortened: as §1
# [10] = target: Fuc(a1-2)Gal(b1-4)[Fuc(a1-3)]GlcNAc
# Procedure, shortened: as §1
# [11] = target: Fuc(a1-2)Gal(b1-4)[Fuc(a1-3)]GlcNAc(b1-2)Man(a1-3)[Fuc(a1-2)Gal(b1-4)[Fuc(a1-3)]GlcNAc(b1-2)Man(a1-6)]Man(b1-4)GlcNAc(b1-4)GlcNAc
# Procedure, shortened: as §1
# [12] = target: Fuc(a1-2)Gal(b1-4)[Fuc(a1-3)]GlcNAc(b1-2)Man(a1-3)[Fuc(a1-2)Gal(b1-4)[Fuc(a1-3)]GlcNAc(b1-2)Man(a1-6)]Man(b1-4)GlcNAc(b1-4)[Fuc(a1-6)]GlcNAc
# Procedure, shortened: as §1
# [13] = target: Fuc(a1-2)Gal(b1-4)[Fuc(a1-3)]GlcNAc(b1-2)[Fuc(a1-2)Gal(b1-4)[Fuc(a1-3)]GlcNAc(b1-4)]Man(a1-3)[Fuc(a1-2)Gal(b1-4)[Fuc(a1-3)]GlcNAc(b1-2)Man(a1-6)]Man(b1-4)GlcNAc(b1-4)GlcNAc
# Procedure, shortened: as §1
# [14] = target: Fuc(a1-2)Gal(b1-4)[Fuc(a1-3)]GlcNAc(b1-3)Gal(b1-4)[Fuc(a1-3)]GlcNAc
# Procedure, shortened: as §1
# [15] = target: Fuc(a1-2)Gal(b1-4)[Fuc(a1-3)]GlcNAc(b1-3)Gal(b1-4)[Fuc(a1-3)]GlcNAc(b1-3)Gal(b1-4)[Fuc(a1-3)]GlcNAc
# Procedure, shortened: as §1
# [16] = target: Fuc(a1-2)Gal(b1-4)[Fuc(a1-3)]GlcNAc(b1-3)GalNAc
# Procedure, shortened: as §1
# [17] = target: Fuc(a1-2)Gal(b1-4)[Fuc(a1-3)]GlcNAc(b1-3)[Neu5Ac(a2-6)Gal(b1-4)GlcNAc(b1-6)]Gal(b1-4)Glc
# Procedure, shortened: as §1
# [18] = target: Fuc(a1-2)Gal3S(b1-4)GlcNAc
# Procedure, shortened: as §1
# [19] = target: Fuc(a1-2)Gal6S(b1-3)GlcNAc
# Procedure, shortened: as §1
# [20] = target: Fuc(a1-2)Gal6S(b1-3)GlcNAc6S
# Procedure, shortened: as §1
# [21] = target: Fuc(a1-2)Gal6S(b1-4)Glc
# Procedure, shortened: as §1
# [22] = target: Fuc(a1-2)Gal6S(b1-4)Glc6S
# Procedure, shortened: as §1
# [23] = target: Fuc(a1-2)Gal6S(b1-4)GlcNAc
# Procedure, shortened: as §1
# [24] = target: Fuc(a1-2)[Gal(a1-3)]Gal
# Procedure, shortened: as §1
# [25] = target: Fuc(a1-2)[Gal(a1-3)]Gal(b1-3)GalNAc
# Procedure, shortened: as §1
# [26] = target: Fuc(a1-2)[Gal(a1-3)]Gal(b1-3)GalNAc(b1-3)Gal(a1-4)Gal(b1-4)Glc
# Procedure, shortened: as §1
# [27] = target: Fuc(a1-2)[Gal(a1-3)]Gal(b1-3)GlcNAc
# Procedure, shortened: as §1
# [28] = target: Fuc(a1-2)[Gal(a1-3)]Gal(b1-3)GlcNAc(b1-2)Man(a1-3)[Fuc(a1-2)[Gal(a1-3)]Gal(b1-3)GlcNAc(b1-2)Man(a1-6)]Man(b1-4)GlcNAc(b1-4)GlcNAc
# Procedure, shortened: as §1
# [29] = target: Fuc(a1-2)[Gal(a1-3)]Gal(b1-3)GlcNAc(b1-2)Man(a1-3)[Fuc(a1-2)[Gal(a1-3)]Gal(b1-3)GlcNAc(b1-2)Man(a1-6)]Man(b1-4)GlcNAc(b1-4)[Fuc(a1-6)]GlcNAc
# Procedure, shortened: as §1
# [30] = target: Fuc(a1-2)[Gal(a1-3)]Gal(b1-3)GlcNAc(b1-3)GalNAc
# Procedure, shortened: as §1
binder,measurement,setting,value
"rCNL (Clitocybe nebularis), B2ZRS9 (protein) SITPGTYNITNVAYTNRLIDLTGSNPAENTLIIGHHLNKTPSGYGNQQWTLVQLPHTTIYTMQAVNPQSYVRVRDDNLVDGAALVGSQQPTPVSIESAGNSGQFRIKIPNLGLALTLPSDANSTPIVLGEVDETSTNQLWAFESVSAV",glycan array binding signal (z-score),[1],-0.171
same,glycan array binding signal (z-score),[2],0.058
same,glycan array binding signal (z-score),[3],-0.199
same,glycan array binding signal (z-score),[4],0.096
same,glycan array binding signal (z-score),[5],-0.284
same,glycan array binding signal (z-score),[6],-0.213
same,glycan array binding signal (z-score),[7],-0.23
same,glycan array binding signal (z-score),[8],-0.207
same,glycan array binding signal (z-score),[9],-0.222
same,glycan array binding signal (z-score),[10],-0.298
same,glycan array binding signal (z-score),[11],-0.311
same,glycan array binding signal (z-score),[12],-0.216
same,glycan array binding signal (z-score),[13],-0.149
same,glycan array binding signal (z-score),[14],-0.303
same,glycan array binding signal (z-score),[15],-0.201
same,glycan array binding signal (z-score),[16],-0.222
same,glycan array binding signal (z-score),[17],-0.211
same,glycan array binding signal (z-score),[18],-0.227
same,glycan array binding signal (z-score),[19],-0.216
same,glycan array binding signal (z-score),[20],-0.199
same,glycan array binding signal (z-score),[21],-0.3
same,glycan array binding signal (z-score),[22],-0.334
same,glycan array binding signal (z-score),[23],-0.345
same,glycan array binding signal (z-score),[24],-0.117
same,glycan array binding signal (z-score),[25],-0.222
same,glycan array binding signal (z-score),[26],-0.221
same,glycan array binding signal (z-score),[27],-0.115
same,glycan array binding signal (z-score),[28],-0.043
same,glycan array binding signal (z-score),[29],-0.152
same,glycan array binding signal (z-score),[30],-0.216
